Source: PubChem BioAssay AID1240 (Sanford-Burnham Center for Chemical Genomics, 2008)
In all, about 50,000 compounds went through this assay and about 800 (1.6%) showed an effect of 50% or more. The list shows a part of the results.

Each compound was assayed against Bcl-2-like protein 10 (Homo sapiens) (UniProt Q9HD36) (assay: TR3 peptide-Bcl-B binding displacers, biochemical primary FP assay, phenotype converters (AID 1240;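 also: 0% = Bcl-B with tracer peptide and DMSO and 100% = tracer peptide lacking Bcl-B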)). Details: GST-Bcl-B / FITC-TR3 peptide fluorescence polarization; stronger effect = higher value; compound at 3.75 mg/L.
Chain of UniProt Q9HD36 (Q9HD36 whole entry, looked up): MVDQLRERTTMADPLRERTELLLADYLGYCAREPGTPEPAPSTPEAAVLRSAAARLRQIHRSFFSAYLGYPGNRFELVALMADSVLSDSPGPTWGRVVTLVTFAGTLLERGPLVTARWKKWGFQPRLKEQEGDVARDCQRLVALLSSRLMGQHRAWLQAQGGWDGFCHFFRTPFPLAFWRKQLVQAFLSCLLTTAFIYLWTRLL
Work on `CC(=O)Nc1ccc(NC(=S)NC(=O)/C=C/c2ccccc2)cc1` yielded a displacement of 4.8%.
`COc1ccc(CC(=O)N=Nc2c(O)n(CN3CCN(C)CC3)c3ccc(Br)cc23)cc1` gave a displacement of -8.9%.
Compound `Cc1oc(-c2ccccc2)cc1C(N)=O` has a displacement of -9.2%.
Compound `O=C1CC(c2ccccc2)CC(O)=C1C=NCCc1ccccc1` (configuration not stated) has a displacement of -17.4%.
`COc1cc(/C=C2\C(=O)NC(=O)N(c3ccc(F)cc3)C2=O)cc(I)c1O` showed a displacement of -11.2%.
Work on `O=C(Nc1ccc(-c2nc3ccccc3s2)c(O)c1)c1cc2ccccc2o1` yielded a displacement of 24%.
`C1=NC(c2ccccc2)C(c2ccccc2)=NN1` (configuration not stated) was tested, and the displacement was 2.6%.
`CCCOc1ccc(C2Nc3ccccc3NC3=C2C(=O)CC(c2ccc(OC)cc2)C3)cc1OC` (configuration not stated) gave a displacement of -9.5%.
For `Cc1nc(-c2ccccc2)sc1C(=O)Nc1cccc2ccccc12`, the displacement was 13.1%.
Compound `CCOc1ccc(OCC)c(-c2c(C#N)c(N)nc3c2CCCCCC3)c1` has a displacement of -9.1%.
`CCOP(=O)(CC(=O)O)c1ccccc1` (configuration not stated) gave a displacement of 18.9%.
In the case of `CN(C)Cc1c(O)ccc2occ(C(=O)c3cccs3)c12`, the displacement is reported as 5.8%.
Compound `CN1C(=O)/C(=C/c2ccccc2F)SC1=S` has a displacement of 11.4%.
In the case of `Cc1cc(C)nc(NC(=O)COc2ccc(Cl)cc2Cl)c1`, the displacement is reported as 22.6%.
Compound `COc1ccc(C(=O)N2CCN(c3cccc(C)c3C)CC2)cc1OC` has a displacement of 2.4%.
Compound `O=[N+]([O-])c1cccc(S(=O)(=O)Nc2ccc(Br)cc2)c1` has a displacement of 10%.
`Cc1ccccc1-c1cc(C(=O)Nc2ccccc2C(F)(F)F)c2ccccc2n1` was tested, and the displacement was -7.6%.
`O=C(Nc1cccc(NC(=O)c2cc3ccccc3oc2=O)c1)c1ccccc1Cl` gave a displacement of 1.9%.
Compound `C/C(=N\NC(=O)Cc1ccc([N+](=O)[O-])cc1)c1ccc(Br)s1` has a displacement of -5.8%.
`CC(=O)Nc1ccc(S(=O)(=O)Nc2ccc(Br)c(Cl)c2)cc1` was tested, and the displacement was -8.7%.
Work on `CCCCOC(=O)c1ccc(NC(=O)CSc2nnc(N)s2)cc1` yielded a displacement of -17.7%.
`C=CCOc1ccccc1/C=C1/C(=O)ON=C1c1ccc(Cl)cc1` showed a displacement of 8.4%.
`O=C(O)c1ccc(N2C(=O)CC(SC(=Nc3ccccc3)Nc3ccccc3)C2=O)cc1` (configuration not stated) gave a displacement of 5.7%.
With `COC(=O)CN(c1ccccc1C)S(C)(=O)=O` the displacement was 8.7%.
Compound `O=C(CSc1ccccn1)N/N=C/c1ccc(Br)cc1` has a displacement of 1.5%.
For `Cc1cccc(OCC(=O)Nc2ccc(Cl)cc2Cl)c1`, the displacement was -4%.
Work on `CC(C)(C)C(=O)Nc1oc(-c2ccccc2)c(-c2ccccc2)c1C#N` yielded a displacement of 2.6%.
`CCOc1ccc(NC(=O)CC2S/C(=N\N=C(/C)c3ccc(F)cc3)NC2=O)cc1` (configuration not stated) showed a displacement of 2.4%.
With `O=C(c1ccco1)n1nnc2ccccc21` the displacement was 18.4%.
With `NC(N)=NS(=O)(=O)c1ccc(N/C=C2/CCCCC2=O)cc1` the displacement was -3.5%.
For `CCOc1ccccc1NC(=O)CN(Cc1ccccc1)S(=O)(=O)c1ccccc1`, the displacement was 7.3%.
With `CCSc1nc(N)c(C#N)c(-c2ccco2)c1C#N` the displacement was 5.9%.
Compound `CCOc1ccc(OCCSc2nc3ccccc3c(=O)[nH]2)cc1` has a displacement of 5.2%.
For `CC(=O)NN1C(=O)/C(=C\c2ccc(O)c([N+](=O)[O-])c2)SC1=S`, the displacement was -64.7%.
`COc1cc(NS(=O)(=O)c2ccc(N/C=C\C(=O)c3ccc(Br)cc3)cc2)nc(OC)n1` gave a displacement of 18.4%.
In the case of `COc1ccccc1C(=O)N/C(=C\c1ccc(Br)cc1)C(=O)N1CCCCC1`, the displacement is reported as 7.8%.
`CCOc1ccc(C(C2=C(O)CC(C)(C)CC2=O)C2C(=O)CC(C)(C)CC2=O)cc1` (configuration not stated) was tested, and the displacement was -4.7%.
With `Cc1cccc(N2C(=O)CC(Sc3ccccc3C(=O)O)C2=O)c1C` (configuration not stated) the displacement was -2.7%.
For `COc1ccccc1Nc1nc(-c2cc3ccccc3oc2=O)cs1`, the displacement was 2%.
`O=C1NC(=O)N(c2ccccc2F)C(=O)/C1=C/c1ccc(O)c(Cl)c1` gave a displacement of 10.2%.
For `O=C(NCC1OCCc2ccccc21)c1ccccc1Cl` (configuration not stated), the displacement was -11.3%.
`Fc1ccc(NC(=S)Nc2ccccc2Cl)cc1` was tested, and the displacement was 18%.
For `C(=NN1CCN(Cc2ccccc2)CC1)c1cccnc1`, the displacement was -3.3%.
`Cc1ccc(C(=O)Nc2cc(Cl)cc(Cl)c2)o1` was tested, and the displacement was -3.8%.
With `CCOC(=O)c1ccc(N2C(=O)C3C4C=CC(C4=C(C)C)C3C2=O)cc1` (configuration not stated) the displacement was 3%.
Compound `CC(CNC(=O)c1ccc(F)c2ccccc12)c1ccccc1` (configuration not stated) has a displacement of -2.3%.
Work on `COc1ccc(/C=C2\SC(N)=NC2=O)cc1` yielded a displacement of 124%.
`CC(C)c1ccccc1OCCCNC(C)(C)C` gave a displacement of -2.9%.
With `COc1ccc(C2CC(=O)C3=C(C2)Nc2ccccc2NC3c2ccccc2Cl)cc1` (configuration not stated) the displacement was -6.1%.
`CCOC(=O)c1ccccc1NC(=O)CN(c1ccc(OC)cc1OC)S(C)(=O)=O` showed a displacement of -1.7%.
`O=C(Nc1ccccc1[N+](=O)[O-])c1cc2ccccc2o1` showed a displacement of 12.4%.
`N/C(=N/c1nc2ccccc2o1)NC(=O)c1cccc(Br)c1` gave a displacement of -2.4%.
`Cc1cc(Cl)ccc1NC(=O)CCC(=O)N/N=C/c1cccs1` showed a displacement of 6.7%.
Work on `Cc1ccnc(Nc2nc(-c3cccnc3)cs2)c1` yielded a displacement of 4.6%.
Work on `N/C(=N\OC(=O)c1ccccc1[N+](=O)[O-])c1ccncc1` yielded a displacement of 2.8%.
Compound `Cc1cc(Cl)ccc1NC(=O)COc1ccc2ccccc2c1` has a displacement of -3.9%.
`Cc1cc([N+](=O)[O-])ccc1N1C(=O)c2ccc(C(=O)Nc3ccccc3C(=O)O)cc2C1=O` gave a displacement of -17%.
`O=C(NN1CCOCC1)c1ccccc1Cl` gave a displacement of 7.7%.
`COc1ccc(CNS(=O)(=O)c2ccc(Cl)cc2)cc1` was tested, and the displacement was 12.4%.
In the case of `O=c1c([N+](=O)[O-])c(N2CCN(c3ccccn3)CC2)c2ccccc2n1-c1ccccc1`, the displacement is reported as -10.9%.
Work on `CCCC(=O)NC(c1ccc(Cl)cc1)c1c(OC(C)=O)ccc2ccccc12` (configuration not stated) yielded a displacement of -10.4%.
`CC(C)(C)OC(=O)COc1ccc2c3c(c(=O)oc2c1)CCC3` showed a displacement of 7.4%.
`C=CCNCc1cccn1-c1ccccc1` was tested, and the displacement was -8.5%.
`O=C1CCCC2=C1C(c1ccc(OCc3ccccc3)cc1)C1=C(CCCC1=O)O2` was tested, and the displacement was 13.6%.
`O=[N+]([O-])c1ccc(-c2noc(-c3cccc(Br)c3)n2)cc1` showed a displacement of -10.1%.
With `CCOC(=O)c1ccccc1NC(=O)/C(=C/c1cccc([N+](=O)[O-])c1)NC(=O)c1ccccc1` the displacement was 1.7%.
`COc1ccccc1C1=NN(C(=O)CCC(=O)O)C(c2ccc(Br)cc2)C1` (configuration not stated) was tested, and the displacement was 11.1%.
Compound `CCOC(=O)c1c(-c2ccc(-c3ccccc3)cc2)csc1NC(=O)C(C)C` has a displacement of -20.8%.
In the case of `CC1(C)Cc2ccccc2C(Nc2ccc(S(N)(=O)=O)cc2)=N1`, the displacement is reported as 0.8%.
Work on `CC(=O)NC1=NC(=O)/C(=C\c2ccc(-c3ccc([N+](=O)[O-])cc3)o2)S1` yielded a displacement of -26.1%.
With `CC(=O)N=C1SC2CS(=O)(=O)CC2N1c1c(Cl)cccc1Cl` (configuration not stated) the displacement was -5.6%.
`CC(=O)c1ccc(-c2ccc(C(C)=O)cc2)cc1` was tested, and the displacement was 16.9%.
For `O=C(NCCO)/C(=C\c1cccs1)NC(=O)c1ccccc1`, the displacement was -11.4%.
`O=C(Nc1ccccc1Br)C1CN(S(=O)(=O)c2ccccc2)CCN1S(=O)(=O)c1ccccc1` (configuration not stated) was tested, and the displacement was 4.9%.
With `Cc1cc(Cl)ccc1NC(=O)c1cccc([N+](=O)[O-])c1` the displacement was -0.2%.
With `CC(C)(C)c1ccc(C(=O)NCCOc2ccccc2Cl)cc1` the displacement was -9.6%.
For `CCCOC(=O)C1=C(C)NC2(O)c3ccccc3C(=O)C12O` (configuration not stated), the displacement was 7.8%.
`Cc1c(C(=O)N2CCN(c3ccc([N+](=O)[O-])cc3)CC2)oc2ccccc12` gave a displacement of 16.1%.
`CCCN1CCN(C(=O)C2COc3ccccc3O2)CC1` (configuration not stated) gave a displacement of 6.3%.
For `CC1(C)Cc2c(sc3ncn4nc(CO/N=C/c5ccccc5Cl)nc4c23)C(C)(C)N1`, the displacement was -20.4%.
`CCc1cccc(C)c1NC(=O)COc1ccc(C)cc1C` was tested, and the displacement was 5%.
`CC(C)/C(=N\NS(=O)(=O)c1ccc(Br)cc1)c1cccs1` was tested, and the displacement was -4.5%.
In the case of `CCOC(=O)c1ccc(N2NC(=O)/C(=C/c3cc(OC)c(OC)cc3Br)C2=O)cc1`, the displacement is reported as 1.9%.
In the case of `NNC(=O)c1ccccc1-n1cccc1`, the displacement is reported as 3.6%.
Work on `C=CCN1C(=O)/C(=C\c2ccc(OC(=O)c3ccc([N+](=O)[O-])cc3)c(OC)c2)SC1=S` yielded a displacement of 13.6%.
Compound `Cc1cc([N+](=O)[O-])ccc1NC(=O)c1ccccc1C(=O)O` has a displacement of 3.4%.
`O=C1C=CC(=O)c2c1c(-c1ccccc1)nn2-c1ccccc1` showed a displacement of -7.4%.
`Cc1ccc(OCC(=O)Nc2cccc(O)c2)cc1C` showed a displacement of -6.7%.
`O=C1CS/C(=N/N=C/c2ccc(-c3ccc(Cl)cc3)o2)N1` was tested, and the displacement was -6.7%.
With `CCOC(=O)C1=C(C)NC(C)=C(C(=O)OCC)C1c1cccs1` the displacement was -5.1%.
`Cc1cc(=O)oc2cc(OCC(=O)C(C)(C)C)ccc12` showed a displacement of 8.3%.
In the case of `COc1ccc(-c2nnc(-c3ccc4c(c3)OCO4)o2)cc1OC`, the displacement is reported as 12.7%.
Work on `Clc1ccccc1CN1CCN(N=Cc2ccccc2Br)CC1` yielded a displacement of -8%.
Compound `Cc1ccc(C)c(NC(=O)c2c(-c3ccccc3Cl)noc2C)c1` has a displacement of 9.9%.
With `O=C1CCCC2=C1C(c1ccc(Cl)c(Cl)c1)Nc1ccccc1N2` (configuration not stated) the displacement was -2.1%.
`O=C(Nc1ccc(Cl)c([N+](=O)[O-])c1)C(c1ccccc1)c1ccccc1` gave a displacement of 7%.
`CC(C)COC(=O)C(C)Nc1n[nH]c(=O)[nH]c1=O` (configuration not stated) showed a displacement of 7.1%.
Work on `CC(CN)(NS(=O)(=O)c1ccccc1)c1ccccc1` (configuration not stated) yielded a displacement of -3.2%.
Compound `CCc1c(C)sc(NC(=O)C(CC)c2ccccc2)c1C(=O)OC` (configuration not stated) has a displacement of 2.4%.
`C=CCc1cccc2cc(C(=O)N3CCN(Cc4ccccc4)CC3)c(=O)oc12` gave a displacement of 3.2%.
For `Nc1nc(-c2ccccc2Cl)cs1`, the displacement was 4.7%.
With `CC1(C)Cc2ccccc2C(/C=C2\NC(C)(C)Cc3ccccc32)=N1` the displacement was -1.7%.
`CCOC(=O)c1ccccc1NC(=O)c1ccc(Cl)cc1` was tested, and the displacement was 2.7%.
`CC(=O)Nc1ccc(/C=C2\SC(=S)N(C)C2=O)cc1` showed a displacement of -3.2%.
Work on `CCOc1cc(OCC)cc(C(=O)Nc2ccc(NC(=O)c3ccc(Br)cc3)cc2)c1` yielded a displacement of -4.1%.
In the case of `CCOc1cccc(N2C(=O)CC(SCC(=O)Nc3ccc4ccccc4c3)C2=O)c1` (configuration not stated), the displacement is reported as -5.1%.
In the case of `O=C(N/N=C/c1ccc(F)cc1)c1cc(C2CC2)[nH]n1`, the displacement is reported as -1.3%.
`CCOC(=O)c1c(C)[nH]c(N=Nc2ccc(C)cc2)c1C` showed a displacement of 2.4%.
In the case of `O=C(CSc1ncn[nH]1)N1c2ccccc2Sc2ccc(Cl)cc21`, the displacement is reported as 9.6%.
`COc1ccc(N(CC(=O)Nc2ccc(C)cc2C)S(C)(=O)=O)c(OC)c1` was tested, and the displacement was -0.6%.
In the case of `O=C(NCC1(c2ccccc2)CCCC1)c1ccccc1Cl`, the displacement is reported as -4.6%.
In the case of `O=C1C(Cl)=CC(=NS(=O)(=O)c2ccccc2)C=C1Cl`, the displacement is reported as 30.3%.
